# PubChem BioAssay AID686979 (National Center for Advancing Translational Sciences (NCATS), 2013)
# The whole screen tested about 420,000 compounds, of which about 50,000 (12%) were called active. This list was built around the results that the source calls inconclusive (neither active nor inactive); the mix of calls is not that of the screen. Calls follow the shape of the dose curve; as a rule, active = well fitted inhibition curve with a large enough effect; inconclusive = small, poorly fitted or top-dose-only effect; inactive = flat fitted curve, though single readings scatter. Potencies of inconclusive entries are left out as doubtful fits.
# Assay: qHTS for Inhibitors of human tyrosyl-DNA phosphodiesterase 1 (TDP1): qHTS in cells in presence of CPT; also: nearly all actives have a fitted effect of over 55% in size
# Settings: chicken DT40 Tdp1-/-;hTDP1 cells + 20 nM CPT, ATP luminescence, 48 h; activity change, negative = growth inhibition: at 46.2 µM (top of the series) unless noted
# Method in brief: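 Cell growth measured by CellTiter-Glo luminescence after a minimum 48 h, 37 C compound exposure with 20 nM CPT in Tdp1-knockout DT40 cells stably expressing hTDP1, seeded 400/well; qHTS titration format.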
# % is scaled to controls: 0 for no effect and ±100 for the full control effect; potency is read from the fitted curve at half-maximal effect; tags tell the direction and shape of the fitted curve.
SMILES,Potency,"activity change, negative = growth inhibition"
Cc1cccc2sc(NNC(=O)C3COc4ccccc4O3)nc12 (stereo not drawn),"inconclusive [inhibitor, single point]",–
CCCCNC(=O)c1ccc(CS(=O)(=O)c2ccc(C)cc2)o1,–,inactive: -24.3%
O=C(NCc1cccnc1)C1CC(c2ccccc2Cl)=NO1 (stereo not drawn),"inconclusive [inhibitor, partial curve]",–
Nc1oc2ccccc2c(=O)c1-c1ccc2c(c1)OCO2,active: 18.4 µM,–
COc1ccc(N=C2SC(C(=O)Nc3ccc4c(c3)OCO4)CC(=O)N2C)cc1 (stereo not drawn),–,inconclusive: -32.8% [inhibitor]
COc1ccc(-c2nc3n(c2Br)CCC3)cc1,"inconclusive [inhibitor, single point]",–
COc1cc(NC(=O)COC(=O)/C=C/c2c(C)nn(-c3ccc(F)cc3)c2Cl)cc(OC)c1,–,inactive: -75.7%
COCCNC(=O)CN1C(=O)COc2ccc(S(=O)(=O)N3CCOCC3)cc21,–,inactive: -25.7%
CCn1c(SCC(=O)Nc2ccc(NC(=O)c3ccco3)cc2)nnc1-c1cccs1,–,inactive: -26.3%
C/C(=N\NS(=O)(=O)c1c(C)cc(C)cc1C)c1ccncc1,–,inactive: -22.9%
COC(=O)[C@]12CCCCC=C1N(CCC1=CCCCC1)C(=O)[C@H](CC(=O)NCc1cccc3ccccc13)C2,"inconclusive [inhibitor, single point]",–
COc1cccc(CNC(=O)CCC2CCCN(C(=O)c3ccoc3C)C2)c1 (stereo not drawn),"inconclusive [inhibitor, single point]",–
Cc1ccc(Cn2nnnc2CN2CCC(NC(=O)c3ccc(Br)cc3)CC2)cc1,"inconclusive [inhibitor, single point]",–
CC1(C)Cc2nc3sc4c(=O)n(Cc5ccccc5)cnc4c3cc2CS1,"inconclusive [inhibitor, single point]",–
O=C(Nc1nc(-c2ccc([N+](=O)[O-])cc2)cs1)C1=COCCO1,–,inactive: -24.5%
Cc1ccc(CNC(=O)c2cc(-c3ccccc3)nn2CC2CC(c3cccc([N+](=O)[O-])c3)=NO2)cc1 (stereo not drawn),–,inactive: -28.3%
C=Cc1ccc(CSc2nc(-c3ccccc3C)nc3c2Cc2c(CO)cnc(C)c2O3)cc1,"inconclusive [inhibitor, single point]",–
CC(=O)OCc1c(C(F)(F)F)nn(C)c1Sc1ccccc1,–,inactive: -6.8%
CCOC(=O)c1c(C)[nH]c(C)c1C(=O)CSc1nc2ccccc2c(=O)n1-c1ccc(CC)cc1,active: 11.6 µM,–
C=CCNC(=O)COc1ccc(S(=O)(=O)NC2CCCCC2)cc1,"inconclusive [inhibitor, single point]",–
Clc1ccc(-n2ncc3c(NCc4ccco4)ncnc32)cc1,"inconclusive [inhibitor, partial curve]",–
CCc1ccccc1N(C)C(=O)Nc1cn(CC(C)C)c(=O)c2ccccc12,active: 14.6 µM,–
CCCOc1ccc(-c2c(C(=O)N/N=C/c3ccc(OCC)cc3)nnn2-c2nonc2N)cc1,–,inactive: -2.9%
CCn1c(C(=O)O)c(CC(=O)N(C)c2ccc(OC)cc2OC)c2ccccc21,–,inactive: -5.2%
O=C1[C@@H]2CSCN2C(=O)CN1Cc1ccc(F)cc1,–,inactive: -6.55%

SMILES,Potency,"activity change, negative = growth inhibition"
COc1ccc(Cc2nnc(N/N=C/c3ccc(O)cc3)[nH]c2=O)cc1OC,active: 1.03 µM,–
CCC(=O)N1CCc2cc(S(=O)(=O)NCCC(=O)NC3CCCc4ccccc43)ccc21 (stereo not drawn),"inconclusive [inhibitor, single point]",–
COCCC(=O)N1CCC(Oc2ccc(C(=O)N3CCCCC3COC)cc2)CC1 (stereo not drawn),–,inactive: -8.75%
O=C(NC(=S)Nc1ccccc1N1CCCC1)c1ccc(F)cc1,"inconclusive [inhibitor, single point]",–
COc1ccc(N2CC(C(=O)Nc3cc(C(F)(F)F)ccc3N3CCCC3)CC2=O)c(OC)c1 (stereo not drawn),"inconclusive [inhibitor, single point]",–
COc1ccc(-c2nc3ccccc3c(=O)n2CC(C)C)cc1,"inconclusive [inhibitor, single point]",–
Cc1cccn2c(=O)c3cc(C#N)c(=NC(=O)c4ccncc4)n(CCCOC(C)C)c3nc12,active: 18.4 µM,–
Cc1cc(N2CCN(C)CC2)nc2ccc(NC(=O)Nc3ccc(Cl)cc3)cc12,"inconclusive [inhibitor, single point]",–
Nc1nc2cc(S(=O)(=O)N3CCOCC3)ccc2o1,active: 23.1 µM,–
N#Cc1ccc(NC(=O)COCc2cc(-c3ccc4c(c3)OCO4)on2)cc1,"inconclusive [inhibitor, single point]",–
C[C@@H]1[C@H](c2ccccc2)OCCS(=O)(=O)N1Cc1ccc(F)cc1,"inconclusive [inhibitor, single point]",–
Cn1c(OCc2ccc3c(c2)OCO3)nc2c1c(=O)n(Cc1cccc(Cl)c1)c(=O)n2C,"inconclusive [inhibitor, single point]",–
CCOC(=O)/C=C(\C)Sc1cc(=O)oc2ccccc12,active: 23.1 µM,–
Cc1cccc(NC(=O)c2cc([N+](=O)[O-])ccc2N2CCCCC2)n1,"inconclusive [inhibitor, single point]",–
O=Cc1ccc(I)cc1,active: 1.58 µM,–
COc1cccc(N2CCN(S(=O)(=O)c3c(C)[nH]c(C)c3C(=O)N3CCCCC3)CC2)c1,–,inactive: -27.4%
COc1cc(=O)[nH]c(=O)n1C(=O)Cc1ccccc1,active: 13 µM,–
CC(NC(=O)NC12CC3CC(CC(C3)C1)C2)c1ccc2c(c1)OCO2 (stereo not drawn),"inconclusive [inhibitor, single point]",–
O=S(=O)(Cc1ccccc1)NCC1CCCN(Cc2cccc3nonc23)C1 (stereo not drawn),–,inactive: 12.8%
COc1ccc(C2CC(O)(c3ccccc3)Oc3c(C)ccc(C)c32)cc1 (stereo not drawn),"inconclusive [inhibitor, single point]",–
Cc1cccn2c(=O)c3cc(C(=O)N4c5ccccc5CC4C)n(C)c3nc12 (stereo not drawn),active: 18.4 µM,–
CC(NC(=O)c1ccco1)c1cccc2ccccc12 (stereo not drawn),"inconclusive [inhibitor, single point]",–
O=C(NCCCc1nc2ccccc2[nH]1)c1cccs1,–,inactive: -6.28%
Cc1ccc(C(=O)N2CCC(C(=O)c3c(C)cc(C)cc3C)CC2)cc1,"inconclusive [inhibitor, partial curve]",–
O=C(NCCCc1ccccc1)c1cccc(Br)c1,–,inactive: -11.9%

SMILES,Potency,"activity change, negative = growth inhibition"
Cc1cc(NC(=O)c2oc3c(c2C)-c2[nH]ncc2CC3)ccc1Br,"inconclusive [inhibitor, single point]",–
C/C=C(/C)C(=O)O[C@@H]1c2c(ccc3ccc(=O)oc23)O[C@@H]1C(C)(C)OC(=O)/C(C)=C\C,"inconclusive [inhibitor, single point]",–
COc1cccc(/C=N\NC(C)=O)c1OC/C=C/c1ccccc1,"inconclusive [inhibitor, single point]",–
Cc1ccc(C)c(-c2cc(C(=O)Nc3nccs3)c3ccccc3n2)c1,"inconclusive [inhibitor, partial curve]",–
O=C(NC12CC3CC(CC(C3)C1)C2)N1CCN(c2ccccc2)CC1,"inconclusive [inhibitor, single point]",–
C/C(Cl)=C/Cn1c(SC(C)C)nc2c1c(=O)[nH]c(=O)n2C,"inconclusive [inhibitor, single point]",–
CNC(=O)c1cc2cccc(OC)c2oc1=O,–,inactive: -7.15%
CC(Sc1ccccc1)C(=O)NCC1COc2ccccc2O1 (stereo not drawn),–,inactive: -6.37%
CCc1ccccc1N1CN(Cc2ccco2)CNC1=S,–,inactive: -8.58%
COc1ccc(CC(=O)OCC(=O)NC(=O)Nc2ccccc2F)cc1,–,inactive: 7.03%
O=C(Cc1ccccc1)N/N=C/c1ccccc1OCc1ccc(Cl)cc1,"inconclusive [inhibitor, single point]",–
CN(C)c1ccc(S(=O)(=O)N2CCCCC2)cc1NC(=O)C1=COCCO1,"inconclusive [inhibitor, single point]",–
Cc1nc(C)n(CC(O)COc2ccc3cc(Br)ccc3c2)n1 (stereo not drawn),"inconclusive [inhibitor, single point]",–
COC(=O)Cn1c(C(=O)N2CCCC2)cc2c1C[C@H]1CN(C(=O)c3ccccc3)[C@@](Cc3ccc(OC)cc3)(C(=O)OC)[C@@H]21,"inconclusive [inhibitor, partial curve]",–
COc1ccccc1C1c2[nH]c3ccccc3c2CCN1Cc1ccc(NC(C)=O)s1 (stereo not drawn),"inconclusive [inhibitor, single point]",–
Cc1c(-c2ccn[nH]2)cc(NC(=O)c2ccc(Cl)cc2)c(=O)n1N,–,inactive: 6.73%
O=c1oc2ccccc2c2c1C(c1ccc(Cl)cc1)Nc1ccc3ccccc3c1-2 (stereo not drawn),"inconclusive [inhibitor, single point]",–
COC(=O)/C(C#N)=C/c1c(-c2ccccc2)nc2n1CCS2,–,inactive: -20%
O=C(Nc1ccccc1)N(CCc1nc2ccccc2[nH]1)C1CCCC1,–,inactive: -5.07%
Cn1ncc(Cl)c1C(=O)NCc1ccc(Cl)cc1,"inconclusive [inhibitor, partial curve]",–
Cc1ccc(C(=O)Nc2ccc3nccnc3c2)cc1,"inconclusive [inhibitor, full curve]",–
COc1ccccc1N1CCN(S(=O)(=O)c2ccc3c(c2)CCCN3C(C)=O)CC1,"inconclusive [inhibitor, single point]",–
CC1C(=O)N(Cc2cn(Cc3ccco3)nn2)CCS(=O)(=O)N1Cc1ccc(-c2ccccc2)cc1 (stereo not drawn),"inconclusive [inhibitor, single point]",–
